Experimental data as given in the supplement of paper PMC7125110.
± gives the standard error. This sample is rich in variants without activity.

B1: glmS ribozyme (parent)
chain: AUAAAAGCGCCAGAACUACAGAAAUGUAGUUGACGAGGAGGAGGUUUAUCGAAUUUUCGGCGGAUGCCUCCAAA

Tests used:
Conditions in all cases: with glucosamine-6-phosphate
[1] = variants of: B1; test: self-cleavage kobs at 40 uM GlcN6P; higher = faster cleavage; RNA array
Outline: (§1)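 Tracking of barcoded ribozyme variants used a hybridised Cy3 probe at 37 °C, after in situ transcription by E. coli RNA polymerase on sequenced MiSeq chips. The flowed solution held 40 μM to 10 mM glucosamine-6-phosphate in HEPES/KCl/Mg(OAc)2 buffer, and imaging ran over ~14 h. kobs was taken from exponential decay fits of normalised per-tile medians, and kcat and KM from weighted Michaelis–Menten fits.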

[2] = variants of: B1; test: self-cleavage kobs at 640 uM GlcN6P; higher = faster cleavage; RNA array
Outline: as §1

[3] = variants of: B1; test: self-cleavage kobs at 160 uM GlcN6P; higher = faster cleavage; RNA array
Outline: as §1

[4] = variants of: B1; test: self-cleavage kobs at 10000 uM GlcN6P; higher = faster cleavage; RNA array
Outline: as §1

[5] = variants of: B1; test: self-cleavage kobs at 2500 uM GlcN6P; higher = faster cleavage; RNA array
Outline: as §1

Variant | self-cleavage kobs at 40 uM GlcN6P [1] [s⁻¹] | self-cleavage kobs at 640 uM GlcN6P [2] [s⁻¹] | self-cleavage kobs at 160 uM GlcN6P [3] [s⁻¹] | self-cleavage kobs at 10000 uM GlcN6P [4] [s⁻¹] | self-cleavage kobs at 2500 uM GlcN6P [5] [s⁻¹]
G13A C68A | < 1e-05 | – | – | – | –
G13U G38C C71A | < 1e-05 | – | – | – | –
G13A A48C | < 1e-05 | < 1e-05 | – | – | –
C11G U30A | < 1e-05 | – | – | – | –
C11A A36G | < 1e-05 | < 1e-05 | < 1e-05 | < 1e-05 | –
C11U G35U G41C G63A | < 1e-05 | – | – | – | –
A14U C16A C50A A64U | < 1e-05 | – | – | < 1e-05 | –
A12G A15G A48U | < 1e-05 | – | – | – | –
C11G A15U | < 1e-05 | – | < 1e-05 | – | < 1e-05
A14G G32C U49A | < 1e-05 | – | – | < 1e-05 | –
G13U G63U | < 1e-05 | – | – | – | –
C11U G51C | < 1e-05 | – | – | < 1e-05 | < 1e-05
C11U C50G C68G | 6.75e-05 ± 1.4e-05 | – | – | – | –
C11A G51U | < 1e-05 | < 1e-05 | – | < 1e-05 | –
A12U U31A G37U C71A | < 1e-05 | – | – | < 1e-05 | –
A12G G41U A52G U54A | < 1e-05 | – | – | – | –
C11G A52C | < 1e-05 | < 1e-05 | < 1e-05 | < 1e-05 | < 1e-05
C11G A52U | < 1e-05 | < 1e-05 | < 1e-05 | < 1e-05 | < 1e-05
A12U C34U G41U G66C | < 1e-05 | – | – | < 1e-05 | < 1e-05
A14G C34U C68G | 0.000349 ± 0.00016 | – | – | 5.07e-05 ± 2e-05 | –
A14U C50U | < 1e-05 | – | – | – | –
G13U G29U A39C G59C | < 1e-05 | – | – | – | –
A12U U49C U57A G62U | < 1e-05 | – | – | < 1e-05 | –
A15C C50G G62U | 4.56e-05 ± 2.2e-05 | 6.39e-05 ± 2.8e-05 | – | – | 0.000111 ± 3.3e-05
A12U C70A | 8.79e-05 ± 1.1e-05 | 0.00047 ± 5.2e-05 | 0.000177 ± 2.9e-05 | 0.00179 ± 0.00036 | 0.00049 ± 7e-05
G13C A39C | < 1e-05 | < 1e-05 | < 1e-05 | – | –
G13U U47G C67U | < 1e-05 | – | – | – | –
